The whole screen tested about 44,000 compounds, of which about 340 (0.77%) were called active. Another 5% or so got no clear call; they are omitted. Calls come from the whole dose curve; as a rule, active = well fitted inhibition curve with a large enough effect; inconclusive = small, poorly fitted or top-dose-only effect; inactive = flat fitted curve, though single readings scatter. This is one part of the list.
Test: Acumen qHTS Assay for Inhibitors of the mTORC1 Signaling Pathway in MEF (Tsc2-/-, p53-/-) Cells: Sytravon;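 note: plate controls were DMSO for no effect and rapamycin for full effect; nearly all actives have a fitted effect of over 50% in size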
Settings: phospho-rpS6 immunofluorescence/PI, 24 h; series mostly up to 38.3 µM; activity change, negative = inhibition: at the top concentration
Summary of the method: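 Plate MEFs (Tsc2-/-, p53-/-, empty vector) in DMEM/10% FBS; after 24 h add compound, incubate 24 h at 37 degree Celsius; fix in PFA/TX-100, block, stain phospho-rpS6 and 10 uM PI; scan at 488 nm; report % positive cells.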

| Structure (SMILES) | activity change, negative = inhibition |
| --- | --- |
| Cc1nc2cc(-c3cccc(F)c3)nn2c(C)c1CCC(=O)NC(C)c1ccccc1 (configuration not stated) | inactive: -5.5% |
| COc1cc(C(=O)NCCc2sc(-c3cccc(F)c3)nc2C)cc(OC)c1OC | inactive: -9.73% |
| O=C(Nc1ccccc1Br)c1cc(CN2CCCC2)on1 | inactive: -7.28% |
| COC(=O)c1c(NC(=O)C2c3ccccc3Oc3ccccc32)sc2c1CCC(C(C)(C)C)C2 (configuration not stated) | inactive: -9.29% |
| COc1cc2c(cc1NC(=O)c1ccccc1C)n(C)c(=O)n2C | inactive: -2.07% |
| CCc1ccc(CNC(=O)c2ccc(-c3nc(CSc4ccc(C)cc4)c(C)o3)cc2)cc1 | inactive: -9.27% |
| COc1cccc(-c2cc(C(=O)NCc3ccc(F)cc3)no2)c1 | inactive: 3.52% |
| COc1cccc(CNC(=O)CCn2cnc3ccccc3c2=O)c1 | inactive: -1.49% |
| O=C(CCN1C(=O)c2ccccc2Sc2ncccc21)Nc1ccc(F)cc1 | inactive: -7.35% |
| CC(CCc1ccccc1)NC(=O)Cn1ncc2c3ccccc3n(Cc3ccccc3)c2c1=O (configuration not stated) | inactive: -5.59% |
| CC(C)CNc1ncnc2onc(-c3ccc(Cl)cc3)c12 | inactive: -22.8% |
| CCOC(=O)c1ccc(NC(=O)c2oc3c(c2C)-c2nn(Cc4ccccc4Cl)cc2CC3)cc1 | inactive: 4.57% |
| COc1ccc(-c2nnc(SCC(=O)Nc3c(C)cccc3C)nc2-c2ccc(OC)cc2)cc1 | inactive: 3.18% |
| COc1ccc(S(=O)(=O)N2CCC(n3c(C)nc4cccnc43)CC2)cc1Cl | inactive: -4.57% |
| Cc1ccc(C)c(N2CCN(S(=O)(=O)c3cc(C(=O)Nc4ccccc4C(F)(F)F)ccc3F)CC2)c1 | inactive: 15% |
| CC(Oc1ccccc1)C(=O)Nc1c(C(=O)Nc2cccc(F)c2)oc2ccccc12 (configuration not stated) | inactive: -5.81% |
| CCOC(=O)c1c(NC(=O)COc2ccc(Cl)cc2Cl)sc2c1CCCCC2 | inactive: -4.94% |
| CCc1ccc(S(=O)(=O)Nc2cc3c(cc2C)n(C)c(=O)c(=O)n3C)cc1 | inactive: -9.1% |
| CN(C)c1ccc(CNC(=O)Cn2c(-c3cccs3)cc3cc(Cl)ccc32)cc1 | inactive: 0.0355% |
| Nc1c(-c2nc(-c3ccccc3Cl)no2)nnn1-c1ccccc1C(F)(F)F | inactive: -4.92% |
| COc1ccccc1NC(=O)N1CCN(c2nnc(C)c3c(C)n(-c4ccccc4)nc23)CC1 | inactive: -30.5% |
| O=c1c2oc3ccccc3c2n(Cc2ccccc2F)c(=O)n1Cc1ccc2c(c1)OCO2 | inactive: 3.15% |
| CCN(CC)S(=O)(=O)c1ccc(NC(=O)c2c(C)oc3ncnc(N4CCCCC4)c23)cc1 | inactive: 6.54% |
| CCN(CC)CCN(C(=O)c1ccco1)c1nc2ccc(F)cc2s1 | inactive: -14.8% |
| Cc1ccc(-c2nnc(SCC(=O)NCc3ccccc3)o2)cc1 | inactive: 3.28% |
| COc1ccc(OC)c(CCNC(=O)CCCn2c(=O)c3cccn3c3cccnc32)c1 | inactive: 1.69% |
| CCOc1ccc(CNS(=O)(=O)c2ccc3c(c2)CC(C)N3C(C)=O)cc1OC (configuration not stated) | inactive: -8.97% |
